{
  "source": "paper PMC10907753",
  "about": "“Structural insights into Xanthomonas campestris pv. campestris NAD^+ biosynthesis via the NAM salvage pathway” (Communications Biology, 2024)",
  "proteins": {"B1": {"name": "Xanthomonas campestris pv. campestris nicotinamide phosphoribosyltransferase (Xcc NAMPT), wild type (enzyme)", "chain": "not shown", "notes": "also called XC_0719; NadV; source: E. coli BL21(DE3), purified (Ni-NTA, anion exchange, gel filtration)"}},
  "target": "the molecule itself",
  "assay": "SEC; analytical gel filtration, Superdex 200 Increase 10/300 GL, 16 °C, 20 mM Tris-HCl pH 8.0, 150 mM NaCl; apparent molecular weight against protein standards",
  "data": [
    {"protein": "B1", "values": [
      {"measurement": "stoichiometry N", "result": 2}
    ]}
  ]
}
